{
  "source": "paper PMC4336329",
  "about": "(PLoS ONE, 2015)",
  "note": "Among all 310,000 compounds or so, about 2,200 (0.71%) showed an effect of 50% or more. Effects have a minus sign here. The list shows a part of the results.",
  "data": [
    {"target": "human ether-à-go-go-related gene (hERG) potassium channel (human, UniProt Q12809)", "sequence (Q12809 whole entry, looked up)": "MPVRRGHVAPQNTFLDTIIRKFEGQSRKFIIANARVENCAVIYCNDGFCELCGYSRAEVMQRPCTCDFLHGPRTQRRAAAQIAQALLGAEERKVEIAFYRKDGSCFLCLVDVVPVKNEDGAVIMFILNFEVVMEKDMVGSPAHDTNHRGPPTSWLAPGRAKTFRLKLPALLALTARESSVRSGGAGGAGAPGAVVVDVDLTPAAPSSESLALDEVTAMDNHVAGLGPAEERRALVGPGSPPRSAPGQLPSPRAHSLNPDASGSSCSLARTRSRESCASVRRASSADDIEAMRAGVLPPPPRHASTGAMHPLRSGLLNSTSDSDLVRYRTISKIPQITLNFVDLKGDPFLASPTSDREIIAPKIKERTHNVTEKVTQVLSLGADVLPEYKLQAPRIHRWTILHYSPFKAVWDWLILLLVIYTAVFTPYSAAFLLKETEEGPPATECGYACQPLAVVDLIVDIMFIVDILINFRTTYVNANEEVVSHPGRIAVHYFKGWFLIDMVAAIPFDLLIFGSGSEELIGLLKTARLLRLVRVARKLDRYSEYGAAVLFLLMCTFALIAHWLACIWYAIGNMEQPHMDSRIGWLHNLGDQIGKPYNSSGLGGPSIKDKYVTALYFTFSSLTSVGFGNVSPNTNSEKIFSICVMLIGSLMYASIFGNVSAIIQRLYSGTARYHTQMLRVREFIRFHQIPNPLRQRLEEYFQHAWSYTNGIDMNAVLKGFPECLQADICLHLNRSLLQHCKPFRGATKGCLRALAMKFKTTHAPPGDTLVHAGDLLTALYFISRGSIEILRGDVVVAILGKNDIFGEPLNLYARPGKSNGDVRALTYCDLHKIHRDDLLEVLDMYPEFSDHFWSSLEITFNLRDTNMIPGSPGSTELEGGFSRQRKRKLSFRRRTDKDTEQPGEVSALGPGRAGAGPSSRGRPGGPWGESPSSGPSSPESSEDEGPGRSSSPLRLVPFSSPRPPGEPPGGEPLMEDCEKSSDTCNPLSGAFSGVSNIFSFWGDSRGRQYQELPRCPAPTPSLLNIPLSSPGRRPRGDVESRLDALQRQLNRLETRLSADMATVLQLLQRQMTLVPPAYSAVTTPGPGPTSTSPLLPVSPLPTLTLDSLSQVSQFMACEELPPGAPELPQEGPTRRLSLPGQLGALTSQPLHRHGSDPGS", "test": "primary screen, population patch clamp on CHO cells stably expressing hERG", "units": {"hERG current change (%, negative = inhibition) at 1uM": "%"}, "values": [
      {"smiles": "CC1(C(=O)N/N=C/c2ccc([N+](=O)[O-])o2)CC1(Br)Br", "note": "(stereo not drawn)", "hERG current change (%, negative = inhibition) at 1uM": -3.34},
      {"smiles": "CC(C)Nc1nnc(SC(C)C(=O)N(C)C2CCCCC2)s1", "note": "(stereo not drawn)", "hERG current change (%, negative = inhibition) at 1uM": 10.4},
      {"smiles": "CCCc1cc(C(=O)N2CCCC(CO)(CCCc3ccccc3)C2)n(C)n1", "note": "(stereo not drawn)", "hERG current change (%, negative = inhibition) at 1uM": -7.57},
      {"smiles": "Clc1ccc(-c2n[nH]c3c2CCC3)c(Cl)c1", "hERG current change (%, negative = inhibition) at 1uM": 17.2},
      {"smiles": "Cc1ccc(C)c2[nH]c(=O)c(CCNC(=O)c3ccc4c(c3)OCO4)cc12", "hERG current change (%, negative = inhibition) at 1uM": 13.1},
      {"smiles": "Cc1[nH]c(=O)[nH]c(=O)c1S(=O)(=O)N1CCC(C(=O)N2CCN(Cc3ccccc3)CC2)CC1", "hERG current change (%, negative = inhibition) at 1uM": 8.03},
      {"smiles": "O=S(=O)(c1ccc(Cl)cc1)N1CCC(N2CCCCCC2)CC1", "hERG current change (%, negative = inhibition) at 1uM": -4.21},
      {"smiles": "NC(=O)CC(NC(=O)Cc1cccc2ccccc12)c1ccc(NC2CC3CCC2C3)c([N+](=O)[O-])c1", "note": "(stereo not drawn)", "hERG current change (%, negative = inhibition) at 1uM": 3.06},
      {"smiles": "Cc1ccc(C(=O)N/N=C\\c2ccncc2)s1", "hERG current change (%, negative = inhibition) at 1uM": 5.19},
      {"smiles": "COC(=O)c1ccc(CSc2nc3cc(Cl)ccc3s2)o1", "hERG current change (%, negative = inhibition) at 1uM": 14.4},
      {"smiles": "COc1ccc2[nH]c(C(=O)Nc3ccc(F)cc3Br)cc2c1", "hERG current change (%, negative = inhibition) at 1uM": 13.5},
      {"smiles": "C=CCn1c(SCC(=O)NC2CCCCC2)nnc1-c1ccc(OC)cc1", "hERG current change (%, negative = inhibition) at 1uM": 0.827},
      {"smiles": "CCOC(=O)c1c(C)c(C(=O)N2CCc3ccccc3C2)c(C)n1CC", "hERG current change (%, negative = inhibition) at 1uM": -5.97},
      {"smiles": "CCC1CCCCN1S(=O)(=O)c1ccc2c(c1)CCN2C(C)=O", "note": "(stereo not drawn)", "hERG current change (%, negative = inhibition) at 1uM": 5.26},
      {"smiles": "CCn1c(CNc2nc(-c3ccccc3)cs2)nnc1SCC(=O)NCc1ccccc1", "hERG current change (%, negative = inhibition) at 1uM": -13.9},
      {"smiles": "Cc1ccc(N(C(=O)c2ccco2)C(C(=O)NC2CCCC2)c2cccnc2)cc1", "note": "(stereo not drawn)", "hERG current change (%, negative = inhibition) at 1uM": 11.4},
      {"smiles": "COCC(=O)c1[nH]c2ccccc2c1C", "hERG current change (%, negative = inhibition) at 1uM": 5.05},
      {"smiles": "O=C(NCCN1C(=O)C2C3C=CC(C3)C2C1=O)N1CCCCC1", "note": "(stereo not drawn)", "hERG current change (%, negative = inhibition) at 1uM": 12.7},
      {"smiles": "CCOC(=O)C1CCN(C(=O)Cn2cnc3sc(C)c(S(=O)(=O)N4CCOCC4)c3c2=O)CC1", "hERG current change (%, negative = inhibition) at 1uM": 5.13},
      {"smiles": "CCOC(=O)CCc1cnccc1-c1cccc(OC)c1O", "hERG current change (%, negative = inhibition) at 1uM": 6.86},
      {"smiles": "CC(=O)N(CCC(c1ccco1)C(C)C)Cc1ccc(OC(C)C)cc1", "note": "(stereo not drawn)", "hERG current change (%, negative = inhibition) at 1uM": 10.4},
      {"smiles": "CCOc1ccc(N(C(=O)c2ccccc2Cl)C2=NC(C)(C)CS2)cc1", "hERG current change (%, negative = inhibition) at 1uM": 8.08},
      {"smiles": "O=C(O)Cn1cc(/C=C2\\SC(=O)N(c3ccccc3)C2=O)c2ccccc21", "hERG current change (%, negative = inhibition) at 1uM": 3.97},
      {"smiles": "CCc1ccccc1N(CC)C(=O)CCc1nc(-c2ccc(C)cc2)no1", "hERG current change (%, negative = inhibition) at 1uM": 3.77},
      {"smiles": "CCOC(=O)c1c(CN2CCCCC2)oc2ccc(OC)cc12", "hERG current change (%, negative = inhibition) at 1uM": -12.4},
      {"smiles": "CN(C(=O)CSc1ccc(S(=O)(=O)N2CCCCC2)cn1)c1ccccc1", "hERG current change (%, negative = inhibition) at 1uM": 3.05},
      {"smiles": "O=C(NCC1CCCO1)/C(=C/c1cn(-c2ccccc2)nc1-c1cccnc1)NC(=O)c1ccccc1", "note": "(stereo not drawn)", "hERG current change (%, negative = inhibition) at 1uM": 9.5},
      {"smiles": "Cc1nn(CC(=O)NCCN2CCOCC2)c(=O)c2cc3sccc3n12", "hERG current change (%, negative = inhibition) at 1uM": 30.3},
      {"smiles": "O=C(Oc1ccc(OC(=O)C2CCC2)cc1)C1CCC1", "hERG current change (%, negative = inhibition) at 1uM": 10.1},
      {"smiles": "Cc1cccc2cc(CNCC3CCCO3)c(Cl)nc12", "note": "(stereo not drawn)", "hERG current change (%, negative = inhibition) at 1uM": 2.04},
      {"smiles": "CC1CCCCN1C(=O)c1c(Cl)cnn1C", "note": "(stereo not drawn)", "hERG current change (%, negative = inhibition) at 1uM": 12.7},
      {"smiles": "NS(=O)(=O)c1ccc(CCNC(=O)CCNC(=O)c2ccco2)cc1", "hERG current change (%, negative = inhibition) at 1uM": 15.9},
      {"smiles": "COc1cc(CN(C)Cc2ccccc2)cc(OC)c1O", "hERG current change (%, negative = inhibition) at 1uM": 6.67},
      {"smiles": "CC(C)(C)c1ccc(C(=O)Nc2cccc(-n3cnnn3)c2)cc1", "hERG current change (%, negative = inhibition) at 1uM": 6.38},
      {"smiles": "COc1ccc(/C=C2\\SC(=O)N(CCC(=O)N(C)C3CCS(=O)(=O)C3)C2=O)cc1", "note": "(stereo not drawn)", "hERG current change (%, negative = inhibition) at 1uM": 9.44},
      {"smiles": "COc1ccc(S(=O)(=O)N(CC(C)C)C2CCS(=O)(=O)C2)cc1OC", "note": "(stereo not drawn)", "hERG current change (%, negative = inhibition) at 1uM": 13},
      {"smiles": "CCSc1nc2c(c(=O)n1CC)SC(C)C2", "note": "(stereo not drawn)", "hERG current change (%, negative = inhibition) at 1uM": 8.22},
      {"smiles": "Cc1oc(-c2cc(F)ccc2F)nc1CN1CCN(c2ncnc3ccccc23)CC1", "hERG current change (%, negative = inhibition) at 1uM": -7.23},
      {"smiles": "COc1ccc(N2CCN(C3CC(=O)N(C)C3=O)CC2)cc1", "note": "(stereo not drawn)", "hERG current change (%, negative = inhibition) at 1uM": 18},
      {"smiles": "CCOP(=O)(OCC)C(Cc1ccccc1)NC(C)=O", "note": "(stereo not drawn)", "hERG current change (%, negative = inhibition) at 1uM": 11.3},
      {"smiles": "Cc1ccc(C(=O)/C=C/c2cc(C#N)n(C)c2C)cc1", "hERG current change (%, negative = inhibition) at 1uM": 18},
      {"smiles": "O=C(Oc1ccc(C(=S)N2CCOCC2)cc1)c1cccc([N+](=O)[O-])c1", "hERG current change (%, negative = inhibition) at 1uM": 11.7},
      {"smiles": "COc1cccc(C2C(C#N)=C(N)Oc3cc(C)oc(=O)c32)c1OC", "note": "(stereo not drawn)", "hERG current change (%, negative = inhibition) at 1uM": 6.13},
      {"smiles": "CCC1=NN2C(=N)/C(=C/c3ccc(OS(=O)(=O)c4ccc(C)cc4)c(OC)c3)C(=O)N=C2S1", "hERG current change (%, negative = inhibition) at 1uM": 9.41},
      {"smiles": "CCc1nnc(NC(=O)C2CCCN2S(=O)(=O)c2ccccc2)s1", "note": "(stereo not drawn)", "hERG current change (%, negative = inhibition) at 1uM": 13.1}
    ]}
  ]
}
